Among all 71,000 compounds or so, about 1,800 (2.5%) were called active. Inconclusive means that the source gave no clear call. Such entries were picked first, then a sample of the others. Calls follow the shape of the dose curve; as a rule, active = well fitted activation curve with a large enough effect in the signal ratio, with a control signal flat (not every such curve was filed as active); inconclusive = small, poorly fitted or top-dose-only effect, or effect the other way, or a change in a side signal; inactive = flat fitted curve, though single readings scatter; the % refers to the signal ratio. Where the call is inconclusive, the potency comes from a doubtful curve fit.
Assay: Cell signaling CRE-BLA (Fsk stim); as to activity change, negative = inhibition: % of control where 0% means no effect
Conditions: CHO CRE-bla reporter (cAMP response element driving beta-lactamase), forskolin EC10, beta-lactamase ratio; activity change, negative = inhibition: at 38.2 µM (top of the series) unless noted
Method in brief: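 AC50 values, positive or negative, reflect shifts in EC10 NKH 477-induced CRE-bla reporter activity in CHO cells. Incubation lasted 3 h at 37 °C before CCF4 substrate (2 h, room temperature) and ratiometric 460/530 nm reading.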
Potency is read from the fitted curve at half-maximal effect; tags tell the direction and shape of the fitted curve.

SMILES	Potency	activity change, negative = inhibition
CCCCNC(=O)c1cc(-c2ccc(F)cc2)on1	inconclusive: 2 µM [rising, full curve, poor fit]	
Fc1ccc2[nH]c3c(N4CCN(C5CCCCC5)CC4)ncnc3c2c1		inactive
COCCCNC(=O)c1ccc(CS(=O)(=O)Cc2cccc(C)c2)o1	inconclusive: 7.94 µM [falling, partial curve]	
COc1cc(N2CN=c3s/c(=C\c4ccccn4)c(=O)n3C2)cc(OC)c1OC	inconclusive: 20 µM [rising, single point]	
Cc1cc(C(=O)O)c(CCCN)s1		inactive
CCOC(=O)C(NC(C)=O)(Nc1ccc(S(=O)(=O)Nc2cc(C)nc(C)n2)cc1)C(F)(F)F (centres undefined)		inconclusive: 20.8%
CN1CCN(S(=O)C23CC4CC(CC(C4)C2)C3)CC1 (centres undefined)	inconclusive: 0.316 µM [falling, partial curve]	
COC(=O)c1cn(-c2ccccc2)nc1-c1cccnc1	inconclusive: 10 µM [rising, partial curve]	
CCOCCOCC		inactive
Oc1ccc(O)c2c(O)cccc12		inconclusive: -9.4%
CCC(=O)N1c2ccc(S(=O)(=O)CCC(=O)NCCC3=CCCCC3)cc2CC1C (centres undefined)		inconclusive: 17.6%
COc1ccc(N2CCN(C(=O)C3CCC(Cn4c(=S)[nH]c5ccccc5c4=O)CC3)CC2)cc1 (centres undefined)		inconclusive: -6.52%
CCCCN1C(=O)C(NC(C)=O)c2cc(Br)ccc21 (centres undefined)	inconclusive: 15.8 µM [falling, single point]	
CC(C)(C)OC(=O)c1c(N)n(CCCN2CCCC2=O)c2nc3ccccc3nc12	active: 10 µM	
CN(C)Cc1nc2ccccc2c(=O)n1Cc1nc(-c2cc3ccccc3o2)cs1		inconclusive: -18.8%
CCOC(=O)c1ccccc1NC(=O)c1cn(CC)c2nc(C)ccc2c1=O	inconclusive: 0.316 µM [rising, full curve]	
CCCCn1c2nc3ccccc3nc2c2c(=N)oc(C)nc21	inconclusive: 10 µM [rising, partial curve]	
CCCn1c2c(c(O)c(C(=O)Nc3ccc(OCC)cc3)c1=O)CCCC2		inactive
Cc1cc(NC(=O)CCCSc2nc(-c3ccco3)cc(C(F)(F)F)n2)no1		inactive
CCOC(=O)c1cnc(SCC(=O)Nc2ccccc2N2CCOCC2)nc1N		inactive
COc1ncc2nc(-c3ccccc3)c(=O)n(-c3ccccc3)c2n1		inconclusive: 22.2%
CCC(c1nnnn1C1CCCC1)N1CCN(c2ccccc2F)CC1 (centres undefined)		inactive
CCCn1nc(-c2ccccc2)c2nc3ccccc3nc21		inconclusive: -16.7% [fluorescent]
O=C(c1cccc(F)c1)N1CCC2(CC1)CN(c1ccc(-c3ccccc3)cc1)C2		inactive
CCn1c(SCc2ccc(C(=O)OC)o2)nc2sc3c(c2c1=O)CCCC3	inconclusive: 12.6 µM [rising, partial curve]	
Cc1ccc(NC(=O)CC2Nc3ccccc3NC2=O)cc1Cl (centres undefined)	inconclusive: 7.94 µM [rising, partial curve]	
CCCCOc1ccccc1NC(=O)c1ccco1	inconclusive: 10 µM [rising, partial curve]	

SMILES	Potency	activity change, negative = inhibition
COc1ccc(C(=O)n2c(-c3ccco3)nc3ccccc32)cc1	inconclusive: 25.1 µM [rising, single point]	
C[N+]1(C)C[C@@H](O)C[C@@H]1C(=O)[O-]		inactive
COc1ccccc1CNc1ccnc(-c2ccc(N(C)C)cc2)n1	active: 12.6 µM	
O=C(NCc1ccco1)c1cc(-c2ccncc2)nc2ccccc12		inconclusive: 32.8%
Cc1ccc(Nc2cc(-n3nc(C)cc3C)ncn2)cc1		inconclusive: 33.4% [at 7.6 µM]
Fc1ccccc1		inactive
CCN(CC)S(=O)(=O)c1cccc(-c2nnc(SC(C)C#N)n2Cc2ccccc2)c1 (centres undefined)		inactive
Cc1cc(C)n(-c2ncnc3sc4c(c23)CC(C)CC4)n1 (centres undefined)		inconclusive: -0.928% [at 7.6 µM]
COc1cccc(-c2nc(NC3CC3)c3ccccc3n2)c1		inactive
COc1ccc(C2=NOC(Cn3c(Cc4ccc(Cl)cc4)nc4c3c(=O)n(C)c(=O)n4C)C2)cc1 (centres undefined)		inactive
COc1cc2cc(CN(C(=O)Nc3ccccc3)C3CCCC3)c(=O)[nH]c2cc1OC		inconclusive: 27.9%
Cc1noc(C)c1CSc1nnc2scc(-c3ccccc3)n12	inconclusive: 12.6 µM [rising, partial curve, poor fit]	
Cc1ccc(-n2ncc3c(=O)[nH]c(SCC(=O)N4CCCCC4)nc32)cc1	inconclusive: 12.6 µM [rising, partial curve]	
N=c1c2c3c(sc2ncn1CCN1CCOCC1)CCCC3		inactive
CS(=O)(=O)N(CCc1ccccc1)CC(=O)N1CCCCC1		inactive
CCNc1nc(SCc2ccccc2)nc(N2CCOCC2)n1	inconclusive: 1.26 µM [rising, full curve, poor fit]	
O=C(c1ccncc1)N1CCC[C@@]2(CCN(C(c3ccccc3)c3ccccc3)C2)C1		inactive
COc1ccc(CCNC(=O)COC(=O)c2ccco2)cc1OC		inactive
[O-][n+]1onc2c1CCc1nnc(-c3ccccc3)cc1-2		inactive
CC(C)(C)c1cc(Br)c(O)c(CN(Cc2cc(C(C)(C)C)cc(Br)c2O)C2CCCCC2)c1		inactive: 7.41% [at 7.6 µM]
COc1ccc(CC(NC(C)=O)C(=O)NC2CCN(c3nnnn3-c3ccccc3)CC2)cc1 (centres undefined)		inconclusive: 2.67%
Cc1cccc(OCC(=O)Nc2ccc3c(c2)nc(CCN2CCN(C)CC2)n3C)c1		inactive
FC(F)(F)c1ccc(N2CCOCC2)c(NC2=NCCCCC2)c1		inconclusive: -7.98%
C(=N\n1cnnc1)/c1ccc2ncccc2c1		inactive
COc1ccc(NC(=O)c2[nH]c(C)c(C(C)=O)c2C)cc1Cl		inconclusive: -9.23%
Cn1cc(S(=O)(=O)N2CCN(c3cccc(C(F)(F)F)c3)CC2)c(=O)n(C)c1=O	inconclusive: 12.6 µM [rising, partial curve]	
CCCN(CCC)C(=O)CSc1nc2n[nH]c(C)c2c(=N)n1-c1ccc(OCC)cc1	active: 2.51 µM	

— PubChem BioAssay AID662 (National Center for Advancing Translational Sciences (NCATS), 2007)
